Measurements reported in the supplement of paper PMC10600219.
Counter-ions that a name gives are not always drawn. Over roughly 2,800 compounds, “cell viability relative to vehicle” has its median near 1.1; the lowest 2% begin near 0.19. This is one part of the list.

These molecules were tested on NCI-H2228 parental (assay: cell viability relative to vehicle (fraction of vehicle); NCI-H2228 is an ALK-positive lung cancer line and DTP means drug-tolerant persister; higher = less growth inhibition). Details: 100 nM; treatment time 6 days.
Procedure, shortened: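 NCI-H2228 parental cells and drug-tolerant persister cells were plated in 384-well plates; the persisters had been generated with 1000 nM of a targeted drug over 13 days. One day later, the 3114-agent TargetMol anti-cancer compound library was added at 100 nM, with DMSO serving as vehicle. ATP was measured 6 days after that using the CellTiter-Glo 3D Cell Viability Assay. Values are cell viability expressed relative to vehicle-treated cells.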

| Compound | cell viability |
| --- | --- |
| O=C1CCc2cc(OCCCCc3nnnn3C3CCCCC3)ccc2N1 [Cilostazol] | 1.19 |
| C=C(C)C1CC=C(C)CC1 (single isomer, unassigned; (+)) [(+)-Dipentene] | 1.05 |
| CCNC(=O)C#Cc1ccc2c(C(=Nc3ccc(CN(C)C)cc3)c3ccccc3)c(O)[nH]c2c1 | 0.236 |
| O=P(O)(O)C(Cl)(Cl)P(=O)(O)O [Disodium clodronate tetrahydrate] | 1.14 |
| Oc1ccc(-c2nc3cc(O)cc(Br)c3o2)cc1 | 1.11 |
| Cc1coc2c1C(=O)C(=O)c1c-2ccc2c(C)cccc12 [Tanshinone I] | 1.01 |
| CCC(C)SSc1ncc[nH]1 (stereo unspecified) | 0.956 |
| CCC1=C(C)CN(C(=O)NCCc2ccc(S(=O)(=O)NC(=O)N[C@H]3CC[C@H](C)CC3)cc2)C1=O [Glimepiride] | 1.15 |
| CC(C)=CC[C@H](O)C1=CC(=O)c2c(O)ccc(O)c2C1=O [Alkannin] | 0.875 |
| C[C@@]12C[C@@]3(O)O[C@@H](O1)[C@]1(COC(=O)c4ccccc4)[C@H]3C[C@@]12O[C@@H]1O[C@H](CO)[C@@H](O)[C@H](O)[C@H]1O [Paeoniflorin] | 1.2 |
| N#C/C(=C/c1ccc(O)c(O)c1)C(=O)N1CCc2ccccc21 [Tyrphostin AG 528] | 1.11 |
| CCCCCCCCc1ccc(CCC(N)(CO)CO)cc1 [Fingolimod hydrochloride] | 1.02 |
| CCN(CC)CCOc1ccc(Nc2nc(-c3ccccc3NC(=O)CCN3CCN(C)CC3)nc3ccccc23)cc1 | 1.15 |
| C[C@]12CC[C@@H]3c4ccc(O)cc4CC[C@H]3[C@@H]1CCC2=O [Aquacrine] | 1.1 |
| CC(C)[C@H](NC(=O)[C@H](CC(=O)O)NC(=O)[C@H](CCCCN)NC(=O)[C@@H](N)CCCN=C(N)N)C(=O)N[C@@H](Cc1ccc(O)cc1)C(=O)O [Thymopentin] | 1.2 |
| Cc1cc(-n2cccc2)c(S(C)(=O)=O)cc1C(=O)N=C(N)N [Eniporide] | 1.24 |
| CCOC(=O)C1=C[C@]2(CC)CCCN3CCc4c(n1c1ccccc41)[C@@H]32 [Vinpocetine] | 1.19 |
| CC(C)c1cc(C(=O)N2Cc3ccc(CN4CCN(C)CC4)cc3C2)c(O)cc1O [Onalespib] | 0.29 |
| CN1CCC(COc2cnc(-c3cccc(Cn4nc(-c5cccc(C#N)c5)ccc4=O)c3)nc2)CC1 [Tepotinib] | 1.2 |
| Cc1c[nH]c2nc(Nc3ccc(N4CCN(C)CC4)c(F)c3)nc(-c3cccc(CC#N)c3)c12 | 0.777 |
| O=C(O)CCC(=O)Nc1ccc(S(=O)(=O)Nc2nccs2)cc1 [Succinylsulfathiazole] | 1.12 |
